In the antibiotic and cytotoxicity screens of Wong et al. (2023):
The other results are listed elsewhere or left out.

system: HSkMC (human skeletal muscle cells); experiment: cytotoxicity call (relative viability < 0.9); conditions: 10 µM

| SMILES | cytotoxicity call |
| --- | --- |
| Cc1ccc(S(=O)(=O)N(C)C[C@H]2OCCCC[C@@H](C)Oc3ccc(NC(=O)Nc4ccc(F)cc4)cc3C(=O)N([C@@H](C)CO)C[C@@H]2C)cc1 | active |
| C[C@@H]1CN([C@@H](C)CO)C(=O)c2cc(NC(=O)Nc3ccc(F)cc3)ccc2O[C@@H]1CN(C)Cc1ccc(C(=O)Nc2ccccc2N)cc1 | inactive |
| Cc1noc(C)c1S(=O)(=O)Nc1ccc2c(c1)C(=O)N([C@@H](C)CO)C[C@H](C)[C@@H](CN(C)S(=O)(=O)c1ccc(F)cc1)O2 | inactive |
| C[C@@H]1CCCCO[C@@H](CN(C)C(=O)Nc2ccccc2)[C@@H](C)CN([C@@H](C)CO)C(=O)c2cc(NC(=O)Nc3ccccc3)ccc2O1 | inactive |
| COc1ccc(NC(=O)N(C)C[C@@H]2Oc3ccc(NS(C)(=O)=O)cc3C(=O)N([C@H](C)CO)C[C@H]2C)cc1 | inactive |
| COCC(=O)N1CC[C@@H]2N(S(C)(=O)=O)CC[C@@]2(C(=O)N2CCOCC2)CC1 | inactive |
| C[C@@H]1CCCCO[C@@H](CN(C)CC2CCCCC2)[C@H](C)CN([C@H](C)CO)C(=O)c2cc(NS(=O)(=O)c3ccccc3)ccc2O1 | inactive |
| CC(C)C(=O)NS(=O)(=O)c1ccc(N)cc1 | inactive |
| C[C@@H]1CCCCO[C@@H](CN(C)Cc2ccc(C(F)(F)F)cc2)[C@H](C)CN([C@H](C)CO)C(=O)c2cc(NS(=O)(=O)c3ccc(F)cc3)ccc2O1 | inactive |
| Cc1ccc(S(=O)(=O)Nc2ccc3c(c2)C(=O)N([C@@H](C)CO)C[C@H](C)[C@H](CN(C)CC2CCCCC2)OCCCC[C@@H](C)O3)cc1 | inactive |
| CCCNC(=O)N1C[C@@H](O)COC[C@H]2O[C@@H](CC(=O)N3CCOCC3)CC[C@@H]21 | inactive |
| CCOC(=O)[C@H](C(C)=O)[C@H]1CCS(=O)(=O)C1 | inactive |
| O=C(Cn1ccc([N+](=O)[O-])n1)N1CCOCC1 | inactive |
| C[C@H](CO)N1C[C@H](C)[C@@H](CN(C)Cc2ccccc2)Oc2ccc(NC(=O)Cn3cnnn3)cc2C1=O | inactive |
| Cc1noc(C)c1NC(=O)Nc1ccc2c(c1)CC(=O)N([C@H](C)CO)C[C@@H](C)[C@H](CN(C)Cc1ccc(C(=O)Nc3ccccc3N)cc1)O2 | inactive |
| C[C@H](CO)N1C[C@H](C)[C@H](CN(C)C(=O)c2ccccc2)OCCCC[C@H](C)Oc2ccc(NC(=O)c3ccccc3)cc2C1=O | inactive |
| COc1ccc(CN(C)C[C@@H]2OCCCC[C@@H](C)Oc3ccc(NS(=O)(=O)c4ccc(OC)cc4)cc3C(=O)N([C@H](C)CO)C[C@H]2C)cc1 | inactive |
| Cc1noc(C)c1S(=O)(=O)Nc1ccc2c(c1)CC(=O)N([C@H](C)CO)C[C@@H](C)[C@@H](CN(C)S(=O)(=O)c1ccc(Cl)cc1)O2 | inactive |
| Cc1noc(C)c1NC(=O)Nc1ccc2c(c1)C(=O)N([C@@H](C)CO)C[C@H](C)[C@@H](CN(C)C(=O)C1CCCCC1)OCCCC[C@@H](C)O2 | inactive |
| C=CCC[C@H](Cc1ccc(F)cc1)C(=O)O[C@@H](CNC(=O)[C@@H](CC=C)CC(=O)N[C@H](CO)Cc1ccccc1)c1ccccc1 | active |

| SMILES | cytotoxicity call |
| --- | --- |
| O=C(NCc1cccc(F)c1)[C@@H]1[C@@H](CO)[C@@H]2Cn3c(cccc3=O)[C@H]1N2C(=O)c1cnccn1 | inactive |
| COc1ccc(NC(=O)Nc2ccc3c(c2)[C@H]2C[C@H](CC(=O)NCC(F)(F)F)O[C@H](CO)[C@H]2O3)cc1 | inactive |
| CO[C@H]1CN(C)C(=O)c2ccc(NC(=O)C3CC3)cc2OC[C@H](C)N(C(=O)Cc2ccccn2)C[C@@H]1C | inactive |
| C[C@@H]1CN([C@@H](C)CO)C(=O)c2cc(NC(=O)Cc3cn(C)c4ccccc34)ccc2O[C@H]1CN(C)Cc1ccc(-c2ccccc2)cc1 | inactive |
| CC(C)C(C)C=CC(C)C1CCC2C3=CC=C4CC(O)CCC4(C)C3CCC21C (centres undefined) | inactive |
| C[C@@H]1CN([C@H](C)CO)C(=O)Cc2cc(NC(=O)CCCCCC(=O)Nc3ccccc3N)ccc2O[C@H]1CN(C)Cc1ccc(C(F)(F)F)cc1 | inactive |
| COc1cccc(NC(=O)N2C[C@@H](O)COC[C@@H]3O[C@H](CC(=O)NCCCN4CCOCC4)CC[C@H]32)c1 | inactive |
| C[C@@H](N)CCc1ccc(Br)cc1 | inactive |
| Cc1ccc(S(=O)(=O)N[C@@H]2CC[C@@H](CC(=O)N3CCC(Cc4ccccc4)CC3)O[C@@H]2CO)cc1 | inactive |
| C[C@@H]1CCCCO[C@H](CN(C)C(=O)Nc2ccc(F)cc2)[C@@H](C)CN([C@H](C)CO)C(=O)c2cc(NC(=O)C3CCCCC3)ccc2O1 | inactive |
| COc1ccc(-c2cc(=O)c3c(O)cc(OC)cc3o2)cc1 | inactive |
| C[C@H](O)C#Cc1cnc2c(c1)C(=O)N([C@H](C)CO)C[C@@H](C)[C@H](CN(C)Cc1cncnc1)O2 | inactive |
| C[C@@H]1CN([C@@H](C)CO)C(=O)c2cc(NC(=O)Nc3cccc4ccccc34)ccc2O[C@H]1CN(C)C(=O)Nc1ccc(F)cc1 | inactive |
| C[C@H]1CN([C@@H](C)CO)C(=O)c2cc(NC(=O)Nc3cccc4ccccc34)ccc2O[C@H]1CN(C)S(=O)(=O)c1cccs1 | inactive |
| CNC[C@@H]1OCCCC[C@@H](C)Oc2ccc(NS(=O)(=O)c3cn(C)cn3)cc2C(=O)N([C@H](C)CO)C[C@@H]1C | inactive |
| C[C@@H]1CN([C@@H](C)CO)C(=O)Cc2cc(NS(=O)(=O)c3ccc(F)cc3)ccc2O[C@H]1CN(C)CC1CC1 | inactive |
| COc1cccc(NC(=O)N[C@@H]2C=C[C@@H](CC(=O)N3CCOCC3)O[C@@H]2CO)c1 | inactive |
| C[C@@H]1CCCCO[C@H](CN(C)S(=O)(=O)c2cccs2)[C@@H](C)CN([C@@H](C)CO)C(=O)c2cc(NS(=O)(=O)c3cn(C)cn3)ccc2O1 | inactive |
| C[C@H]1CN([C@@H](C)CO)C(=O)c2cc(NC(=O)Cn3cnnn3)ccc2O[C@@H]1CN(C)S(=O)(=O)c1ccc(Cl)cc1 | inactive |
